# Measurements as given in PubChem BioAssay AID662 (National Center for Advancing Translational Sciences (NCATS), 2007).
# In all, about 71,000 compounds went through this assay and about 1,800 (2.5%) were called active. The shares of active, inactive and inconclusive entries below differ from those in the screen. Calls come from the whole dose curve; as a rule, active = well fitted activation curve with a large enough effect in the signal ratio, with a control signal flat (not every such curve was filed as active); inconclusive = small, poorly fitted or top-dose-only effect, or effect the other way, or a change in a side signal; inactive = flat fitted curve, though single readings scatter; the % refers to the signal ratio. Potencies of inconclusive entries are doubtful fits and often do not repeat.
# Assay: Cell signaling CRE-BLA (Fsk stim); for activity change, negative = inhibition: % of control where 0% means no effect
# Settings: CHO CRE-bla reporter (cAMP response element driving beta-lactamase), forskolin EC10, beta-lactamase ratio; activity change, negative = inhibition: at 38.2 µM (top of the series) unless noted
# Procedure, shortened: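 Using CellSensor CRE-bla CHO cells in Opti-MEM with 0.5% dialyzed FBS, compounds were titrated with EC10 NKH 477 for 3 h at 37 °C. CCF4 ratio (460/530 nm) gave %Activity; AC50 derived.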
# Potency is the fitted concentration of half-maximal effect; tags give direction and shape of the fitted curve.
SMILES,"activity change, negative = inhibition",Potency
CC(=O)OCCCN1C(=O)c2ccc(Br)cc2C1=O,inconclusive: 1.7%,–
c1ccc(N2CCOCC2)c(Nc2nc3ccccc3n3cnnc23)c1,–,"inconclusive: 10 µM [rising, partial curve]"
CNC(=O)CSc1nnc(-c2cc3c(C)nn(-c4ccccc4)c3s2)n1C,–,inactive
c1ccc(CNc2ccnc(-c3ccoc3)n2)cc1,–,inactive
CN1CCN(c2nc(NCCOC34CC5CC(CC(C5)C3)C4)nc(OCC(F)(F)F)n2)CC1,–,"inconclusive: 10 µM [rising, partial curve]"
COc1cc(O)c2c(=O)cc(-c3ccccc3)oc2c1,inconclusive: -15.1%,–
Cc1cc(NC(=O)C2CCCN(S(=O)(=O)c3c(C)noc3C)C2)n[nH]1 (centres undefined),–,inactive
CC(C)[C@H](NC(=O)Nc1ccc2c(c1)OCCO2)C(=O)O,inconclusive: 2.65%,–
COc1ccc(-n2c(=O)c(-c3cn(C)c4ccccc34)nc3cnc(N4CCOCC4)nc32)cc1,–,inactive
COc1cccc(Cn2c(=O)c(-c3ccc(F)cc3)nc3cnc(N4CCNCC4)nc32)c1,–,"inconclusive: 0.794 µM [rising, partial curve]"
CCOc1cccc(NC(=O)C2CC(=O)N(C)C(=Nc3ccccc3)S2)c1 (centres undefined),inconclusive: 11.5%,–
O=C(NCCN1CCc2ccccc2C1)C1CCN(S(=O)(=O)N2CCC3(CC2)OCCO3)CC1,inconclusive: -7.53%,–
COC(=O)c1[nH]c2cc(OC)ccc2c1NC(=O)CCN1CCCCC1,–,inactive
CN1CCN(c2nc3cc(C(F)(F)F)ccc3n3cccc23)CC1,–,"inconclusive: 31.6 µM [rising, single point]"
COC(=O)C(C#N)c1nc2ccccc2nc1N1CCN(Cc2ccc3c(c2)OCO3)CC1 (centres undefined),–,inactive
COc1ccc(-c2nn(C)c3sc(C(=O)NCc4ccco4)cc23)cc1OC,inconclusive: 2.07%,–
CC(C)(C)c1ccc(O)c(CN(Cc2c(O)ccc3ccccc23)C2CCCCC2)c1,inactive: -20.1% [at 7.6 µM],–
Nc1c(S(=O)(=O)c2cccc(Cl)c2)c2nc3ccccc3nc2n1/N=C/c1ccc(O)c(O)c1,inconclusive: -5.41%,–
Cc1cccc2cc3c(N)c(C#N)sc3nc12,–,"inconclusive: 7.94 µM [rising, partial curve]"
Cc1cc(C)c2nc(N3CCCN(C(=O)c4ccco4)CC3)c(C#N)cc2c1,–,"inconclusive: 10 µM [rising, partial curve]"
COc1cccc(-c2cc(NCCc3c[nH]c4ccc(OC)cc34)ncn2)c1,inconclusive: 29.3%,–
COc1ccc(CC(=O)Nc2nccs2)cc1OC,inconclusive: 18.8%,–
c1ccc(-n2nnc3ccccc32)nc1,inconclusive: 15.9%,–
Cc1nn(C)c(C)c1CNC(=O)c1nn2c(c1Cl)NC(c1cccs1)CC2C(F)(F)F (centres undefined),inconclusive: -19.3%,–
CCN(CC)CCn1nc(C)nc1-c1ccccc1O,inconclusive: -3.94%,–
CC(=O)N1CCC2(CC1)C(C#N)=C(N)Oc1c2sc2nc(C)cc(C)c12,inconclusive: 13.7%,–
COc1ccc(S(=O)(=O)Nc2ccc(S(=O)(=O)N3CCOCC3)cc2)cc1C,inconclusive: -25.7%,–

SMILES,"activity change, negative = inhibition",Potency
CCCCCCOC(=O)C(C#N)c1nc2ccccc2nc1N1CCN(CC)CC1 (centres undefined),inconclusive: -4.81%,–
O=S(=O)(NCCNC/C=C\c1ccc(Br)cc1)c1cccc2cnccc12,inconclusive: -28.4%,–
CC(=O)O[C@H](CC(=O)O)C[N+](C)(C)C,–,inactive
O=C(Nc1ccc2c(c1)OCCO2)c1c(F)cccc1F,–,inactive
COc1ccc(-c2cc(C(F)(F)F)n3nc(C(=O)N4CCCC4)cc3n2)cc1,–,inactive
CCn1c(SCC(=O)Nc2cccc(C(C)=O)c2)nnc1C(C)C,–,inactive
CC(C)=CCNc1ncnc2nc[nH]c12,inactive: 0.465% [at 7.6 µM],–
Cc1nc2cnc(N3CCN(C)CC3)nc2n(CCc2ccccc2)c1=O,–,"inconclusive: 15.8 µM [rising, partial curve]"
CCOC(=O)c1[nH]c2ccc(F)cc2c1NC(=O)C1=COCCO1,–,"inconclusive: 10 µM [rising, single point]"
CCc1nc(SCC(=O)Nc2ccccc2C(=O)OC)n[nH]1,–,"inconclusive: 6.31 µM [rising, partial curve]"
O=C(c1ccc(CNS(=O)(=O)c2ccccc2)cc1)N1CCN(c2ccccn2)CC1,inconclusive: -24.7%,–
CC(C)Cn1c(N)c(C(=O)NCCN2CCOCC2)c2nc3ccccc3nc21,–,active: 10 µM
CC(=O)c1ccc2c3c(ccc(O)c13)CC2,inconclusive: 16.4% [at 7.6 µM],–
N#Cc1c(N)n(C2CCCCC2)c2nc3ccccc3nc12,inconclusive: -6.09%,–
CC1(C)CC[C@]2(C(=O)O)CC[C@]3(C)C(=CC[C@@H]4[C@@]5(C)CC[C@H](O)C(C)(C)[C@@H]5CC[C@@]43C)[C@@H]2C1,inconclusive: 4.16%,–
CCOc1cc2[nH]c(=O)n(CCC(=O)NCCc3ccccc3)c(=O)c2cc1OCC,inconclusive: -12.5%,–
Cc1c(/C(O)=C2/C(=O)C(=O)N(CCN3CCOCC3)C2c2cccs2)cnn1-c1ccccc1 (centres undefined),inconclusive: 9.68%,–
O=C(NC1CCCCC1)c1noc2c1CCCCC2,inconclusive: 1.54%,–
CCOC(=O)c1ccc(NC(=O)c2c(O)c3ccccc3n(C)c2=O)cc1,inconclusive: 16.5% [cytotoxic],–
COC(=O)c1c(NC(=O)CSc2nnnn2C)sc(C)c1C,–,"inconclusive: 12.6 µM [rising, single point]"
Cc1ccc(S(=O)(=O)N(C)c2ccc(OCC(=O)OCc3c(C)noc3C)cc2)cc1,–,"inconclusive: 5.01 µM [falling, single point]"
COc1ccc(-n2c3c(cc(C(=O)NC4CCSC4=O)c2=O)C(=O)CC(C)(C)C3)cc1 (centres undefined),inconclusive: 11.5% [at 7.6 µM],–
CCc1nnc2sc(-c3cc(-c4ccccc4)nc4ccccc34)nn12,–,inactive
CCC(C)(C(=O)NC1CCCC1)N(CC1CCCO1)C(=O)c1ccc2c(c1)OCO2 (centres undefined),–,inactive
N#CCCn1c(=O)c(CCc2ccccc2)nc2cnc(Oc3ccccc3)nc21,inconclusive: -2.5%,–
c1ccc2c(c1)OCC(c1nnc3n1-c1ccccc1SC3)O2 (centres undefined),–,inactive
CC(=O)O[C@H]1C[C@@]2(C)[C@H](C[C@@H](O)[C@H]3[C@@]4(C)CC[C@@H](O)[C@@H](C)[C@H]4CC[C@@]32C)C1=C(CCC=C(C)C)C(=O)O,–,inactive

SMILES,"activity change, negative = inhibition",Potency
CCCCNS(=O)(=O)c1ccc2nc(SCC(=O)c3ccc(C#N)cc3)[nH]c2c1,inconclusive: -6.84%,–
COc1cc(-c2nn3c(Cc4ccccc4)nnc3s2)cc(OC)c1OC,–,active: 0.794 µM
CCCCn1nnnc1NCc1ccc(OC)c(OC)c1,–,inactive
Cn1c(C(=O)N2CCN(c3ncccn3)CC2)cc2c(=O)n(C)c3ccccc3c21,–,"inconclusive: 3.16 µM [rising, single point]"
CCc1nc(NCc2ccco2)c2oc3ccccc3c2n1,–,active: 3.98 µM
Cn1c(=O)c2cc(S(=O)(=O)NCCC(=O)N3CC=C(c4ccccc4)CC3)ccc2n(C)c1=O,inconclusive: 14.2%,–
O=C(CCn1c(SCC(=O)NCc2ccco2)nc2ccccc2c1=O)NCCc1ccccc1,–,"inconclusive: 20 µM [falling, single point]"
OCCn1c(CSc2nnc(-c3ccco3)n2-c2ccccc2)nc2ccc(Cl)cc21,–,active: 0.2 µM
CCOC(=O)c1c(C)[nH]c(C(=O)CSc2ccccc2)c1C,–,inactive
N=P(N1CCOCC1)(N1CCOCC1)C12CC3CC(CC(C3)C1)C2,inconclusive: -0.0581%,–
Cc1cc(C(=O)OCC(=O)NCc2ccco2)c(C)n1-c1ccc(F)cc1,–,"inconclusive: 20 µM [rising, single point]"
Cc1ccc(NC(=O)CSc2nnc(-c3ccc(S(=O)(=O)N4CCOCC4)cc3)n2C)cc1,–,inactive
Cc1ccc(-c2cc(C(F)(F)F)n3ncc(C(=O)NCc4ccco4)c3n2)cc1,inconclusive: -21.9% [at 7.6 µM],–
O=C(CSc1nnc(-c2cnccn2)n1Cc1ccco1)c1ccccc1,inconclusive: -5.02%,–
CCCCN(C(=O)NC(=O)C1=C(N2CCOCC2)/C(=C/c2ccccc2)CC1)S(C)(=O)=O,inconclusive: 11.6%,–
Cc1ccc(-n2c(N)c(C(=O)N3CCN(C)CC3)sc2=S)cc1,–,"inconclusive: 10 µM [rising, partial curve]"
Cn1c(=O)[nH]c(=O)c2c1nc(SCC(O)CO)n2Cc1ccccc1Cl (centres undefined),inconclusive: 21.3%,–
Cn1c2ccccc2c2ncn(CCN3CCOCC3)c(=O)c21,–,"inconclusive: 25.1 µM [rising, single point]"
COc1ccc(CCNC(=O)C2CC(=O)N(c3ccccc3)C2)cc1OC (centres undefined),inconclusive: -14.2% [at 7.6 µM],–
COc1cc2c(cc1OC)C(c1ccc(N)cc1)=NNC(=O)C2,–,"inconclusive: 5.01 µM [rising, partial curve]"
COc1cc2c(cc1OC)CN(C(=O)c1ccc(OC)c(S(=O)(=O)N3CCOCC3)c1)CC2,–,"inconclusive: 12.6 µM [rising, partial curve]"
CCOC(=O)C1CCN(C(=O)Cc2c(F)cccc2Cl)CC1,–,"inconclusive: 3.98 µM [rising, single point]"
CCCCN1CCC(CCC(=O)c2cc(Cl)c(N)cc2OC)CC1,–,inactive
CCC(c1nnnn1CCOC)N(Cc1ccc(C)cc1)Cc1cc2cc(OC)ccc2[nH]c1=O (centres undefined),–,inactive
O=C(Nc1nc(-c2cccs2)cs1)c1cccc(S(=O)(=O)N2CCCCCC2)c1,inconclusive: 8.21% [cytotoxic],–
